Consider 68 variants from the RNAGym collection of RNA variant scans (doi:10.1093/nar/gkz1192).

The source gives no read counts; variants with many changes may rest on few reads.

To fix the notation:
B1: CPEB3 Ribozyme (parent)
chain: UAACAGGGGGCCACAGCAGAAGCGUUCACGUCGCAGCCCCUGUCAGAUUCUGGUGAAUCUGCGAAUUCUGCUGUAUAUCUC

The data set covers variants of B1. Put plainly: self-cleavage, relative activity (ratio to wild type); higher = more cleavage; in vitro, sequencing. The essentials: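 Relative activity was defined as the cleaved/total read fraction for a variant divided by the same fraction for the unmutated ribozyme. CPEB3 self-cleaving ribozyme libraries were made by rounds of error-prone PCR, barcoded, and transcribed in vitro with T7 RNA polymerase for 5 hours at 37°C, and cleavage ran through transcription plus a 15 min DNase I step before EDTA. Illumina sequencing of template-switched reverse transcripts gave the reads, and DNA sequencing mapped the barcodes. Averages come from three batches, using variants with at least 5 reads.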
With UAACAGGGGGUCACAGCAGAAGCGUACACGUCGCAGUCCCUGUCAGAUUCUGGUGAAUCUGCGAAUUCUGCUGUAUAUCUC, the self-cleavage came out at 0.22.

Regarding UAACAGGGGGUCACAGCAGAAGCGUUCACGUCGCAGCCCCUGUCAGAUCCUGGUGAAUCUGCGGAUUCUGCUAUAUAUCUC, the self-cleavage came to 0.25. Consider UAACAGGGGGUCACAGCAGAAGCGUUCACGCCGCAGCCCCUGUCAGACUCUGGUGUAUCUGCGAAUUCAGCUGUAUAUCUC, for which the self-cleavage is 0.16.

As for UAACAGGGGGUCACAGCAGAAGCGUACACGUCGCAGCCCCUGUUAGAUUCUGGUGAAUCAGCGAAUUCUGCUGUAUACCUC, the self-cleavage came to 0.08. As for UAACAGGGGGUCACAGCAGAAGCGUUCACGUCGCAGCCCCUGUCAGACUCUGGUGUAUCUGCGAAUUCAGCUGUAUAUCUC, the figure is 0.04. Take UAACAGGGGGUCACAGCAGAAGCGCUCACGUCGCAGCCCCUGUCAGAUUCUGGUGAAUCAGCGAGUUCUGCUGUAUAUCUC: the self-cleavage is 0.09. As for UAACAGGGGGUCACAGCAGAAGCGUUCACGUCGCAGCCCCUGUCACAUUCUGGUGAAUCCGCGAAUUCUGCUGUAUAUCUC, the self-cleavage came to 0.13. To UAACAGGGGGUCACAGCAGAAGCGUUCACGUCGCACCCCCUGUCUGAACCUGGUGAAUCUGCGAAUUCUGCUGUAUAUCUC belongs 0.05; to UAACAGGGGGUCACAGCAGAAGCGUUCACGUCGCAGCCCCUGUCAGAUCCUGGUGAAACUGCGAAUUCUGCUGUAUAUCUC, 0.13. For the variant UAACAGGGGGUCACAGCAGAAGCGCUCACGUCGCAGCCCCUGCCAGAUUCUGGUGAAUCUGCGAAAUCUGCUGUAUAUCUC, the self-cleavage amounted to 0.04. As for UAACAGGGGGUCACAGCAGAAGCGUUCACGUCGCAGCCCCUGUCAGACUCUGGUGAAUCUGCGAAUGCUGCUGUAUAUCUC, the self-cleavage stood at 0.07. Turning to UAACAGGGGGUCACAGCAGAAGCGUUCACGUCGCAACCCCUGUCAGAUUCUGGAGAAUCUGCGAAUUCCGCUGUAUAUCUC, the self-cleavage was found to be 0.25. On to UAACAGGGGGUCACAGCAGAAGCGCUCAUGUCGCAGCCCCUGUCAGAUUCUGGUGAAUCUGCGAAUUCUGCUGUAUAUCUC, for which the self-cleavage worked out at 0.44. In the case of UAACAGGGGGUCACAGCAGAAGCGUUCACGUCGCAGCCCCUGUCAGAUCCUGGUGAAUCUGCGAAUUCUGCUGUAUGUCGC, the self-cleavage was 0.05. Regarding UAACAGGGGGUCACAGCAGAAGCGAUCACGUCGCAGCCCCUGUCAGAUUCUGGUGAAUCUGCGAAUUCUGCCGUAUAUCCC, the self-cleavage is 0.45.

In the case of UAACAGGGGGUCACAGCAGAAGCGUCCACGUCGCAGCCCCAGUAAGAUCCUGGUGAAUCUGCGAAUUCUGCUGUAUAUCUC, the self-cleavage is 0.05. For UAACAGGGGGUCACAGCAGAAGCGUUCACGUCGCAGCCCCUGUCAGAUUCCGGUGGAUCUGCGAAUUCUGCUGCAUAUCUC, the self-cleavage was 0.65.

Take UAACAGGGGGUCACAGCAGAAGCGUUCACGUCACAGCUCCUGUCAGGUUCUGGUGUAUCUGCGGAUUCUGCUGUAUAUCUC: the self-cleavage came to 0.04. Turning to UAACAGGGGGUCACAGCAGAAGCGUUCACGCCGCAGCCCCUGUCGGAUUCUGGUGAAUCUGCGAGUUCUGCUGUAUAUCUC, the self-cleavage is 0.11. As for UAACAGGGGGUCACAGCAGAAGCGUUCACGUCGCAGCCCCUAUCAGAUUCAGGUGAAUCGGCGAAUUCUGCUGUAUAUCUC, the self-cleavage came out at 0.09.

For UAACAGGGGGUCACAGCAGAAGCGUUCACGCCGCAGCCCCUGUCUUAUUCUGGUGAAUCUGCGAAUUCUGCUGUAUAUCUC, the self-cleavage came out at 0.17. UAACAGGGGGUCACAGCAGAAGCGAUCACGUCGCAGCCCCUGUCAGAUUCUGGUGAAUCUGCGAAUUCUGCUGUUUAUCUC: the self-cleavage amounted to 0.17.

Consider UAACAGGGGGUCACAGCAGAAGCGUUCACGUCGCAGCCCCUGCCAGUUUCUGGUGAGUCUGCGAAUUCCGCUAUAUAUCCC, for which the self-cleavage amounted to 0.03. With UAACAGGGGGUCACAGCAGAAGCGCUCACGCCGCUGCCCCUGUCAGGUUCUGGUGAAUCUGCGAACUCUGCUGUAUAUCUC, the self-cleavage is 0.04.

Take UAACAGGGGGUCACAGCAGAAGCGUCCACGUCGCUGCCCCUGUCAGAUUCUUGUGUAUCUGCGAAUUCUGCUGUUUAUCUC: the self-cleavage came to 0.03. On to UAACAGGGGGUCACAGCAGAAGCGUUCACGUCGCAGCCCCUGUCAGAUUCUGGUGAAUCUGCGAAUUCUACGGUAUAUCUC, for which the self-cleavage was 0.18. For the variant UAACAGGGGGUCACAGCAGAAGCGCCCACGUCGCAGCCCCUGUCAGAUUCUGGUGUAUCUGCAAAUUCUGCUGUAUAUCUC, the self-cleavage amounted to 0.28.

For the variant UAACAGGGGGUCACAGCAGAAGCGCUCACGUCGCUGCCCCUGUCAGAUUCUGGUGAAUCUGCGAAUUCUGCAGUAUAUCUC, the self-cleavage stood at 0.05. As for UAACAGGGGGUCACAGCAGAAGCGUUCACGUCGCAACCCCUGCCAGAUUCUGGUGAAUCAGCGAAUUCAGCUGUAUAUCUC, the figure is 0.09.

Turning to UAACAGGGGGUCACAGCAGAAGCGUUCACGUCGCAGCCCCAGUCAGACUCUGGUGAAUCUGCGAGUUCUGCUGUAUAUCUC, the self-cleavage worked out at 0.12. To UAACAGGGGGUCACAGCAGAAGCGGUCACGUCGCAGCCCCUGUCAGACUCUGGUGAAUCUGCGAAUUCUGCUGUAUAUCUC belongs 0.22; to UAACAGGGGGUCACAGCAGAAGCGCUCUCGUCGCAGCCCCUGUCAGAUUCUGGUGAAUCUGCGAAUUCUGCUGUAUAUCUC, 0.04.

Consider UAACAGGGGGUCACAGCAGAAGCGUUCACGACGCAGCCCCUGUCAGAUUCUGGUGAAUCUGCGAAUUAUGCUGUAUACCUC, for which the self-cleavage worked out at 0.06.

In the case of UAACAGGGGGUCACAGCAGAAGCGUUCACGACGCAGCCCCUGUCAGAUUCAGGUGAAUCUGCGAAUUCUGCUGUAUAUCUC, the self-cleavage was 0.17. As for UAACAGGGGGUCACAGCAGAAGCGUUCACGUCGCAGCCCCCGUCAGAUUCUGGUGAAUCUGCGAAUUCUGCCGUAUAUCUC, the self-cleavage amounted to 0.94. As to UAACAGGGGGUCACAGCAGAAGCGUUCACGUCGCAGCCCCCGUCAGAUACUGGUGAAUCUGCGAAUUCUGCUGUAUCUCUC, the self-cleavage was 0.18. UAACAGGGGGUCACAGCAGAAGCGUUCACGUCGCAGCCCCUGUCAGACUCAGGCGGAUCUGCGAAUUCUGCUGUAUAUCUC: the self-cleavage is 0.09. For the variant UAACAGGGGGUCACAGCAGAAGCGUCCGCGUCGCAGCCCCUGUCAGAUUCUGGUGAGUCUGCGAGUUCUGCCGUAUAUUUC, the self-cleavage was determined as 0.02. On to UAACAGGGGGUCACAGCAGAAGCGUUCACGCCGCAGCCCCUGUCAGAUUCCGGUGAAUCUGCGAAUCCUGCUGUAUAUCUC, for which the self-cleavage amounted to 0.06. On to UAACAGGGGGUCACAGCAGAAGCGUUCACGCCGCAGCCCCUGUCAGAUUCUGGUGAACCCGCGGAUUCUGCUGUAUAUCUC, for which the self-cleavage turned out to be 0. Regarding UAACAGGGGGUCACAGCAGAAGCGUUCACUUCGCAGUCCCUGUCAGACUCUGGUGAAUCCGCGAACUCUGCUGUAUAUCUC, the self-cleavage stood at 0.13. Take UAACAGGGGGUCACAGCAGAAGCGCUCACGUCGCGGCCCCUGUCGGAUUCUGGUGAAUCUGCGAAUUCUGCUGUAUUUCUC: the self-cleavage is 0.05. Regarding UAACAGGGGGUCACAGCAGAAGCGUUCACGGCGCAGCCCCUGUCAGAUUCUGGUGAAUCUGCGAAUUCUGCUGUAUACCUC, the self-cleavage was found to be 0.14. To UAACAGGGGGUCACAGCAGAAGCGUCCACGUCGCAGCCCCUGUCUGAUUCUGGUGAAUCUGCGAAUUCUGCUGUAUAUCUC belongs 0.09; to UAACAGGGGGUCACAGCAGAAGCGUUCACGUCGCAGCCCCUGUCAGAUCCCGGUGAAUCUGCGAAUUCAGCUGUAUAUCUC, 0.09. Turning to UAACAGGGGGUCACAGCAGAAGCGCUCCCGUCGCGGCCCCUGUCUGAUACUGGUGAAUCUGCGAAUUCUGCUGUAUAUCUC, the self-cleavage was found to be 0.06. As for UAACAGGGGGUCACAGCAGAAGCGUUCACGUCACAGCCCGUGUUAGAUUCUGGUGAAUCUGCGAGUUCUGCUGUAUAUCUC, the self-cleavage stood at 0.11. For the variant UAACAGGGGGUCACAGCAGAAGCGUUCACGACGCAGCCCCUGUCUGAUUCUGGUGAAUCUGCGAAUUCUGCUGUAAGUCUC, the self-cleavage came out at 0.09. As for UAACAGGGGGUCACAGCAGAAGCGUUCACGUCGCAGCCCCUGUCAGAUUCUGGUGAAUCUGCAAAUUCCGCCGUAUAUCUC, the self-cleavage turned out to be 0.1. With UAACAGGGGGUCACAGCAGAAGCGCUCACGCCGCAGCCCCUGCCAGAUUCUGGUGAAUCUGCGGAUUCAGCUGUAUAUCUC, the self-cleavage is 0.07. With UAACAGGGGGUCACAGCAGAAGCGUUCACGUCGCAGCCCCCGUCAGAUCCUGGUGAAUCUGCGAAUUCUGCUGUAUAUCUC, the self-cleavage amounted to 0.14. On to UAACAGGGGGUCACAGCAGAAGCGUUCACGUCGCAGCCCCUGCCAGAUUCUGGUGAAUCUGCGAAUUCUGCUGUAUAACUC, for which the self-cleavage came to 0.19.

On to UAACAGGGGGUCACAGCAGAAGCGCUCACGUCGCAGCCCCUGUCAGAUUCUGGUGAAUCUGCGAAUCCUGCUGUAUAUCCC, for which the self-cleavage is 0.06. As to UAACAGGGGGUCACAGCAGAAGCGUUCACGUCGCAGCCCCUGCCAGAUUCUGGUGGAUCCGCGAAUUCUGCUGUAAAUCCC, the self-cleavage was 0.11. For UAACAGGGGGUCACAGCAGAAGCGUUCACGUCGCAGCCCCUGCCAGAUUCUGGUGAAUCUGCGAAUUCUGCUGUGUAUCUC, the self-cleavage was 0.43. To UAACAGGGGGUCACAGCAGAAGCGUCCACGUCGCAGCCCCUGUCAGAUUCAGGUGAAACUGCGAAUUCUGCUGUAUAUCUC belongs 0.05. Regarding UAACAGGGGGUCACAGCAGAAGCGUUCACGUCGCAGCCCCUGUCAGAUACUGGUGAAUCUGCGAAUUCUGCCGUAUAUCUC, the self-cleavage turned out to be 0.3. For UAACAGGGGGUCACAGCAGAAGCGUUCACGCCGCAGCCCCUGUCAGAUUCUGGUGAAUCUGCGAUUUCUGCUGUAUAACUC, the self-cleavage amounted to 0.13. UAACAGGGGGUCACAGCAGAAGCGUUCACGUCGCAGCCCCCGUCAGGUUCUGGUGAAUCUGCGAAUUCUGCUGUAUAUCAC: the self-cleavage came out at 0.44.

As to UAACAGGGGGUCACAGCAGAAGCGUUCACGUCGCAGCCCCAGCCAGAUUCUGGUGAAUCUGCGAAUUCUGCUGUAUAUCUC, the self-cleavage is 0.21. Turning to UAACAGGGGGUCACAGCAGAAGCGUUCACGCUGCAGCCCCUGCCAGAUUCUGGUGAAUCUGGGAAUUCUGCUGUAUAUCUC, the self-cleavage was found to be 0.05. For UAACAGGGGGUCACAGCAGAAGCGUCCACGCCGCAGCCCCUGUCAGAUUCUGGUAAUUCUGCGAAUCCUGCUGUAUAUCUC, the self-cleavage stood at 0.03. Take UAACAGGGGGUCACAGCAGAAGCGUUCACGUCGCAGCCCCUGUCAGAUCCUGGUGAAUCUGCGAAUCCUGCUGUAUAUCUC: the self-cleavage was found to be 0.12. As for UAACAGGGGGUCACAGCAGAAGCGUUCACGUCGCAGCCCCUGUCAGAUUCCGGUGGAUCUGCGAAUUCUGUUGUAUAUCUC, the self-cleavage stood at 0.18. As to UAACAGGGGGUCACAGCAGAAGCGAUCACGUCGCAGCCCCUGUCAGAUUAUGGUGGAUCCGCGAAUUCUGCUGCAUAUCUC, the self-cleavage is 0.31.

For the variant UAACAGGGGGUCACAGCAGAAGCUUUCACGUCGCAGCCCCUGCCAGAUUCUGGGGAAUCUGCGAAUUCUGCCGUAUAUCUC, the self-cleavage worked out at 0.18. As for UAACAGGGGGUCACAGCAGAAGCGUUCACGUCGCAGCCCCUGUCAGAAUCUGGUGAAUCUGCGAAUUCCGCUGUAUAUCUC, the self-cleavage stood at 0.2.

Take UAACAGGGGGUCACAGCAGAAGCGUUCACGUCGCAGCCCCAGUCAGAUUCUGGUGAAUCCGCGAAUUCUGCUGUAUAUCUC: the self-cleavage was 0.09.
